# Some of the results follow.
# B1: SP16665A-bot-344-23-344 (Bacteroides ovatus) (protein)
# chain: SDNEFPDFDYQTVYFANQYGLRTIELGESEFVDNTLDNQHKMVIKAAWGGGYTNRNNVVINFKVDESLCDNLYFKDTDQPLVPMPASYYTLASDRIAIPKGQIMAGVEVQLTDDFFADEKSISENYVIPLLMTNVQGADSILQGKPVVENPVLTNAGDWSILPQNFVLYAVKYVNPWHGEYLRRGIDHATVAGTSKDIIRHEQFVENDEVVNISTKSMKDNLLTLKTKDESGKDISYTVRLSFAEDGSCTVHSGSQNVVVSGSGKFVSKGEKNSLGGKDRNAIYLDYTVNLTDNNIQLATKDTLVLRTRNVYGGKSLEVVRK
# Assays:
# Experiment in all cases: glycan array binding signal (z-score within array); higher = stronger binding
# Conditions in all cases: glycan notation: IUPAC condensed, linker removed
# [1] = target: Gal(b1-3)GlcNAc(b1-6)[Gal(b1-3)]GalNAc
# Outline: (§1)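 Glycan array data came from 3228 arrays in the Consortium for Functional Glycomics database, and only arrays with an available protein sequence were kept. Glycan names were put into IUPAC-condensed notation, and columns mapping to the same glycan were averaged. The binding signal is a within-array Z-score, averaged across arrays of one protein sequence run at different concentrations or buffers and across linkers. A negative Z-score can be read as non-binding.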
# Gal(b1-3)GlcNAc6S = target: Gal(b1-3)GlcNAc6S
# Outline: as §1
# [2] = target: Gal(b1-3)[Fuc(a1-4)]GlcNAc
# Outline: as §1
# [3] = target: Gal(b1-3)[Fuc(a1-4)]GlcNAc(b1-2)Man
# Outline: as §1
# [4] = target: Gal(b1-3)[Fuc(a1-4)]GlcNAc(b1-2)Man(a1-3)[Gal(b1-3)[Fuc(a1-4)]GlcNAc(b1-2)Man(a1-6)]Man(b1-4)GlcNAc(b1-4)[Fuc(a1-6)]GlcNAc
# Outline: as §1
# [5] = target: Gal(b1-3)[Fuc(a1-4)]GlcNAc(b1-3)Gal(b1-3)[Fuc(a1-4)]GlcNAc
# Outline: as §1
# [6] = target: Gal(b1-3)[Fuc(a1-4)]GlcNAc(b1-3)Gal(b1-4)[Fuc(a1-3)]GlcNAc
# Outline: as §1
# [7] = target: Gal(b1-3)[Fuc(a1-4)]GlcNAc(b1-6)GalNAc
# Outline: as §1
# [8] = target: Gal(b1-3)[GlcNAc(b1-6)]GalNAc
# Outline: as §1
# [9] = target: Gal(b1-3)[Neu5Ac(a2-6)]GalNAc
# Outline: as §1
# [10] = target: Gal(b1-3)[Neu5Ac(a2-6)]GlcNAc(b1-4)Gal(b1-4)Glc
# Outline: as §1
# [11] = target: Gal(b1-3)[Neu5Ac(b2-6)]GalNAc
# Outline: as §1
# Gal(b1-4)Gal = target: Gal(b1-4)Gal
# Outline: as §1
# [12] = target: Gal(b1-4)GalNAc(a1-3)[Fuc(a1-2)]Gal(b1-4)GlcNAc
# Outline: as §1
# [13] = target: Gal(b1-4)GalNAc(b1-3)[Fuc(a1-2)]Gal(b1-4)GlcNAc
# Outline: as §1
# Gal(b1-4)Glc = target: Gal(b1-4)Glc
# Outline: as §1
# Gal(b1-4)Glc6S = target: Gal(b1-4)Glc6S
# Outline: as §1
# Gal(b1-4)GlcNAc = target: Gal(b1-4)GlcNAc
# Outline: as §1
# [14] = target: Gal(b1-4)GlcNAc(a1-6)Gal(b1-4)GlcNAc
# Outline: as §1
# Gal(b1-4)GlcNAc(b1-2)Man = target: Gal(b1-4)GlcNAc(b1-2)Man
# Outline: as §1
# [15] = target: Gal(b1-4)GlcNAc(b1-2)Man(a1-3)Man(b1-4)GlcNAc(b1-4)GlcNAc
# Outline: as §1
# [16] = target: Gal(b1-4)GlcNAc(b1-2)Man(a1-3)[Gal(b1-4)GlcNAc(b1-2)Man(a1-6)]Man(b1-4)GlcNAc(b1-4)GlcNAc
# Outline: as §1
# [17] = target: Gal(b1-4)GlcNAc(b1-2)Man(a1-3)[Gal(b1-4)GlcNAc(b1-2)Man(a1-6)]Man(b1-4)GlcNAc(b1-4)[Fuc(a1-6)]GlcNAc
# Outline: as §1
# [18] = target: Gal(b1-4)GlcNAc(b1-2)Man(a1-3)[Gal(b1-4)GlcNAc(b1-2)Man(a1-6)][Gal(b1-4)GlcNAc(b1-4)]Man(b1-4)GlcNAc(b1-4)[Fuc(a1-6)]GlcNAc
# Outline: as §1
# [19] = target: Gal(b1-4)GlcNAc(b1-2)Man(a1-3)[Gal(b1-4)GlcNAc(b1-2)Man(a1-6)][GlcNAc(b1-4)]Man(b1-4)GlcNAc(b1-4)[Fuc(a1-6)]GlcNAc
# Outline: as §1
# [20] = target: Gal(b1-4)GlcNAc(b1-2)Man(a1-3)[GlcNAc(b1-2)Man(a1-6)]Man(b1-4)GlcNAc(b1-4)GlcNAc
# Outline: as §1
# [21] = target: Gal(b1-4)GlcNAc(b1-2)Man(a1-3)[GlcNAc(b1-4)][Gal(b1-4)GlcNAc(b1-2)Man(a1-6)]Man(b1-4)GlcNAc(b1-4)GlcNAc
# Outline: as §1
# [22] = target: Gal(b1-4)GlcNAc(b1-2)Man(a1-3)[Man(a1-6)]Man(b1-4)GlcNAc(b1-4)GlcNAc
# Outline: as §1
# [23] = target: Gal(b1-4)GlcNAc(b1-2)Man(a1-6)Man(b1-4)GlcNAc(b1-4)GlcNAc
# Outline: as §1
# [24] = target: Gal(b1-4)GlcNAc(b1-2)Man(a1-6)[GlcNAc(b1-2)Man(a1-3)]Man(b1-4)GlcNAc(b1-4)GlcNAc
# Outline: as §1
# [25] = target: Gal(b1-4)GlcNAc(b1-2)Man(a1-6)[Man(a1-3)]Man(b1-4)GlcNAc(b1-4)GlcNAc
# Outline: as §1
# [26] = target: Gal(b1-4)GlcNAc(b1-2)[Gal(b1-4)GlcNAc(b1-4)]Man(a1-3)[Gal(b1-4)GlcNAc(b1-2)Man(a1-6)]Man(b1-4)GlcNAc(b1-4)GlcNAc
# Outline: as §1
# [27] = target: Gal(b1-4)GlcNAc(b1-2)[Gal(b1-4)GlcNAc(b1-4)]Man(a1-3)[Gal(b1-4)GlcNAc(b1-2)[Gal(b1-4)GlcNAc(b1-6)]Man(a1-6)]Man(b1-4)GlcNAc(b1-4)GlcNAc
# Outline: as §1
# [28] = target: Gal(b1-4)GlcNAc(b1-2)[Gal(b1-4)GlcNAc(b1-4)]Man(a1-3)[GlcNAc(b1-4)][Gal(b1-4)GlcNAc(b1-2)Man(a1-6)]Man(b1-4)GlcNAc(b1-4)GlcNAc
# Outline: as §1
# [29] = target: Gal(b1-4)GlcNAc(b1-2)[Gal(b1-4)GlcNAc(b1-4)]Man(a1-3)[GlcNAc(b1-4)][Gal(b1-4)GlcNAc(b1-2)[Gal(b1-4)GlcNAc(b1-6)]Man(a1-6)]Man(b1-4)GlcNAc(b1-4)GlcNAc
# Outline: as §1
# [30] = target: Gal(b1-4)GlcNAc(b1-2)[Gal(b1-4)GlcNAc(b1-6)]Man(a1-6)[Gal(b1-4)GlcNAc(b1-2)Man(a1-3)]Man(b1-4)GlcNAc(b1-4)GlcNAc
# Outline: as §1
# [31] = target: Gal(b1-4)GlcNAc(b1-2)[Gal(b1-4)GlcNAc(b1-6)]Man(a1-6)[Gal(b1-4)GlcNAc(b1-2)Man(a1-3)]Man(b1-4)GlcNAc(b1-4)[Fuc(a1-6)]GlcNAc
# Outline: as §1
binder,measurement,setting,value
B1,glycan array binding signal (z-score),[1],-0.274
same,glycan array binding signal (z-score),Gal(b1-3)GlcNAc6S,-0.287
same,glycan array binding signal (z-score),[2],-0.203
same,glycan array binding signal (z-score),[3],0.303
same,glycan array binding signal (z-score),[4],0.611
same,glycan array binding signal (z-score),[5],-0.08
same,glycan array binding signal (z-score),[6],-0.228
same,glycan array binding signal (z-score),[7],0.189
same,glycan array binding signal (z-score),[8],-0.316
same,glycan array binding signal (z-score),[9],-0.201
same,glycan array binding signal (z-score),[10],0.766
same,glycan array binding signal (z-score),[11],-0.06
same,glycan array binding signal (z-score),Gal(b1-4)Gal,-0.339
same,glycan array binding signal (z-score),[12],-0.475
same,glycan array binding signal (z-score),[13],-0.312
same,glycan array binding signal (z-score),Gal(b1-4)Glc,-0.451
same,glycan array binding signal (z-score),Gal(b1-4)Glc6S,0.631
same,glycan array binding signal (z-score),Gal(b1-4)GlcNAc,-0.185
same,glycan array binding signal (z-score),[14],-0.497
same,glycan array binding signal (z-score),Gal(b1-4)GlcNAc(b1-2)Man,1.02
same,glycan array binding signal (z-score),[15],-0.191
same,glycan array binding signal (z-score),[16],-0.394
same,glycan array binding signal (z-score),[17],-0.014
same,glycan array binding signal (z-score),[18],-0.393
same,glycan array binding signal (z-score),[19],-0.323
same,glycan array binding signal (z-score),[20],-0.46
same,glycan array binding signal (z-score),[21],-0.183
same,glycan array binding signal (z-score),[22],-0.153
same,glycan array binding signal (z-score),[23],-0.545
same,glycan array binding signal (z-score),[24],-0.093
same,glycan array binding signal (z-score),[25],0.225
same,glycan array binding signal (z-score),[26],-0.051
same,glycan array binding signal (z-score),[27],-0.036
same,glycan array binding signal (z-score),[28],-0.429
same,glycan array binding signal (z-score),[29],-0.651
same,glycan array binding signal (z-score),[30],0.11
same,glycan array binding signal (z-score),[31],-0.254
